Measured values from PubChem BioAssay AID686970 (National Center for Advancing Translational Sciences (NCATS), 2013).
Out of some 360,000 compounds screened, about 6,000 (1.7%) were called active. Inconclusive means that the source gave no clear call. Such entries were picked first, then a sample of the others. The call rests on the fitted dose curve; in most records, active means well fitted cell-killing curve with a large enough effect; inconclusive means small, poorly fitted or top-dose-only effect, or effect the other way; inactive means flat fitted curve, though single readings scatter. Potencies of inconclusive entries are left out as doubtful fits.

experiment: qHTS for induction of synthetic lethality in tumor cells producing 2HG: qHTS for the HT-1080-NT fibrosarcoma cell line; conditions: HT-1080-NT fibrosarcoma viability, CellTiter-Glo ATP luminescence, 48 h; activity, negative = less viability: at 46.1 µM (top of the series) unless noted;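 further: NT is the 2HG producing partner of a matched IDH1 knockdown line; nearly all actives have a fitted effect of over 55% in size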;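 on activity, negative = less viability: 0% = DMSO-treated cells and -100% = media-only wells without cells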
In short: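 Read-out is CellTiter-Glo luminescence after 10 minutes at room temperature, following 48 hours' compound treatment of HT-1080-NT cells (750 cells/well, RPMI, 5% FBS, 37 degrees C).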
Potency means the concentration at half of the fitted maximal effect; tags describe the fitted curve by direction and shape.

| SMILES | Potency | activity, negative = less viability |
| --- | --- | --- |
| CCCCCC(=O)N1CC2(CC(c3cccc(NC(=O)CC(c4ccccc4)c4ccccc4)c3)=NO2)C[C@@H]1C(N)=O (some centres undefined) | inconclusive [cytotoxic, single point] | – |
| CN1CCN(C(=S)Nc2ccc(Cl)c(Cl)c2)CC1 | inactive | – |
| O=C(NN=Cc1ccc(O)cc1O)c1ccccc1NS(=O)(=O)c1cccs1 | inconclusive [cytotoxic, partial curve] | – |
| COc1ccc(NC(=O)CSc2c3c(nc4cc(Cl)ccc24)CCCC3)cc1OC | inconclusive [cytotoxic, partial curve] | – |
| N=c1ccn(Cc2ccc(F)cc2)cc1 | inconclusive [cytotoxic, single point] | – |
| CC1=C/C(=N\OS(=O)(=O)c2ccccc2)C(C)=CC1=O | active: 4.61 µM | – |
| CC(C)C[C@@H](CN1CCCC1CN1C(=S)NC[C@@H]1Cc1ccc(O)cc1)N1C[C@H](Cc2ccc(O)cc2)N(CC2CCCCC2)C1=S (some centres undefined) | active: 18.4 µM | – |
| CC1(C(=O)Nc2ccc3c(c2)OCCO3)CCC(=O)N1C1CC1 (centres undefined) | – | inconclusive: 33.4% |
| Cc1ccc2cccc(Oc3nnnn3-c3ccccc3)c2n1 | inactive | – |
| OC(CNCC1(N2CCCCC2)CCCCC1)COc1ccc(Cl)cc1Cl (centres undefined) | inconclusive [cytotoxic, partial curve] | – |
| C=CCN(C(=O)CN1CCCCC1)c1nc(-c2ccccc2)cs1 | inconclusive [cytotoxic, single point] | – |
| Cn1c(SSc2ccc(-c3cccnc3)n2C)ccc1-c1cccnc1 | active: 10.3 µM | – |
| N#CC(C#N)=Cc1cn(-c2ncc(C(F)(F)F)cc2Cl)c2ccccc12 | – | inconclusive: 37.9% |
| Cc1ccc2nc(Cl)c(/C=C/C(=O)c3ccco3)cc2c1 | inconclusive [cytotoxic, single point] | – |
| CC1CCC2C(C1)c1sc(=O)[nH]c1SC2(C)C (centres undefined) | inconclusive [cytotoxic, single point] | – |
| O=C(Nc1ccc(C(F)(F)F)cc1[N+](=O)[O-])O[C@H]1[C@H](Cc2ccccc2)NS(=O)(=O)[C@H]2C[C@@H]3C=C[C@]12O3 | inactive | – |
| COC(=O)Nc1ccc(S(=O)(=O)N2CCCc3cccc(O)c32)cc1 | inconclusive [cytotoxic, single point] | – |
| COc1ccc(N=C(N)SCc2ccccn2)cc1 | inconclusive [cytotoxic, single point] | – |
| O=C(Nc1cc(Sc2ccccn2)cc([N+](=O)[O-])c1)c1ccc([N+](=O)[O-])cc1 | inconclusive [cytotoxic, single point] | – |
| COc1cc(-c2nc(CN3CCN(C(=O)c4ccco4)CC3)c(C)o2)ccc1F | inactive | – |
| O=C(C1CCCN(Cc2cccs2)C1)N1CCCCCC1 (centres undefined) | inconclusive [rising, partial curve, poor fit] | – |
| CC(C)(C)CC(C)(C)c1ccc(O)c(CN2CCN(CCC#N)CC2)c1 | inactive | – |
| Cc1ccc(S(=O)(=O)NCCC(=O)N2CCN(C/C=C/c3ccccc3)CC2)cc1 | inactive | – |

| SMILES | Potency | activity, negative = less viability |
| --- | --- | --- |
| CCOC(=O)[C@]12CCC=C1N(Cc1ccccc1)C(=O)[C@H](CC(=O)NCCC(C)C)C2 | inactive | – |
| COc1cc(OC)c(C(=O)O/N=C(\N)c2cccc(C)c2)cc1OC | inconclusive [cytotoxic, single point] | – |
| COc1ccc2cc(C(=O)N/N=C/c3sc4ccccc4c3O)ccc2c1 | inconclusive [cytotoxic, single point] | – |
| O=c1c2c(-c3ccccc3)csc2nc2c3ccccc3c(NCCN3CCOCC3)nn12 | active: 14.6 µM | – |
| CC(C)CNc1ncnc2c1ncn2[C@H]1CN(Cc2cccc3ccccc23)C[C@@H](CO)O1 | inconclusive [cytotoxic, partial curve] | – |
| CC1(C)CC(=O)C2=C(C1)OC1=C(C(=O)CC(C)(C)C1)C2c1ccc(O)cc1O | active: 5.62 µM | – |
| Cc1cc(Cl)ccc1OCC(=O)Nc1cccnc1 | inactive | – |
| COC(=O)c1cc(=O)n(Cc2ccc(OC)c(OC)c2)c(=Nc2ccc(F)cc2)s1 | inconclusive [cytotoxic, single point] | – |
| O=C(Nn1c(O)c(C=C2N=c3ccccc3=N2)sc1=S)c1cccc(Cl)c1 | inconclusive [cytotoxic, single point] | – |
| O=C(CNC(=O)c1ccccc1Br)N/N=C/c1ccccc1O | inconclusive [cytotoxic, full curve] | – |
| CC(C)(C)S(=O)N1Cc2cc(C(=O)N[C@@H]3CCN(Cc4ccccc4)C3)nc(-c3cccc(-c4cc5ccccc5o4)c3)c2[C@@H]1CCO (some centres undefined) | inconclusive [cytotoxic, single point] | – |
| COc1cccc(/C=C/C(=O)Nc2ccc3nc4n(c(=O)c3c2)CCCC4)c1OC | inconclusive [cytotoxic, single point] | – |
| O=C(Nc1ccccc1N1CCOCC1)c1ccccc1NS(=O)(=O)c1ccc(F)c(F)c1 | active: 18.4 µM | – |
| CC(C)C[C@H]1COc2cccc(N3CCN(Cc4ccccc4F)CC3)c2S(=O)(=O)N1 | inconclusive [cytotoxic, single point] | – |
| CCOC(=O)N1CCN(C(=O)C2CCN(C(=O)c3ccccc3C)CC2)CC1 | inconclusive [cytotoxic, single point] | – |
| Nc1nc2n(n1)C(=O)CC(c1ccccc1)N2 (centres undefined) | inconclusive [rising, full curve] | – |
| O=C(c1cn(Cc2ccccc2)nc1-c1ccccc1)N1CCN(c2ccccn2)CC1 | inconclusive [cytotoxic, single point] | – |
| Cc1ccc(S(=O)(=O)N(C)c2ccc(OC(=O)c3cccs3)cc2)cc1C | inactive | – |
| CCOC(=O)[C@]12CCCC=C1N(Cc1cccc3ccccc13)C(=O)[C@H](CC(=O)NCc1cccc(C(F)(F)F)c1)C2 | inconclusive [cytotoxic, single point] | – |
| COc1ccc(CN(C(=O)CNC(=O)c2ccco2)C(C(=O)NC2CCCC2)c2ccco2)cc1 (centres undefined) | inconclusive [rising, full curve] | – |
| CC1(C)CC(=O)CC(=NCC(=O)O)C1 | inconclusive [rising, partial curve] | – |
| CCOc1ccc2nc(N(CCCN(C)C)C(=O)c3ccc(C(=O)c4ccccc4)cc3)sc2c1 | inconclusive [cytotoxic, single point] | – |
| COc1ccc(NC(=S)Nc2ccc3c(c2)c(=O)n(C)n3-c2ccccc2)cc1 | inactive | – |

| SMILES | Potency | activity, negative = less viability |
| --- | --- | --- |
| O=C1C2C3C=CC(C4CC34)C2C(=O)N1/N=C/c1ccc([N+](=O)[O-])o1 (centres undefined) | active: 2.59 µM | – |
| CC1(C(=O)NS(=O)(=O)c2ccc(Cl)s2)CCN1C(=O)C1CCCCC1 (centres undefined) | inactive | – |
| CCOC(=O)N1CCN(CC(=O)Nc2ccc(F)c(F)c2F)CC1 | inactive | – |
| COCCNc1nc(-c2ccc(Cl)cc2C)c2sccc2n1 | inconclusive [cytotoxic, single point] | – |
| COc1ccc2c(-c3ccc(OCCN4CCCCC4)cc3)c(-c3ccccc3OC)sc2c1 | inconclusive [cytotoxic, single point] | – |
| O=C(/C=C/c1ccco1)Nc1ccc(Oc2ccc(Cl)cc2)cc1 | active: 5.8 µM | – |
| O=C(Nc1cc(S(=O)(=O)N2CCOCC2)ccc1N1CCCCC1)c1ccccc1 | inactive | – |
| O=C(CCCc1nc(-c2ccc(Cl)cc2)no1)NCC1CCCO1 (centres undefined) | inactive | – |
| Fc1ccc(C2CC(c3cccs3)=NN2c2ccccc2)cc1 (centres undefined) | inconclusive [cytotoxic, single point] | – |
| COc1ccc(COC(=O)Oc2ccc(CNC(C)=O)cc2OC)c([N+](=O)[O-])c1 | inactive | – |
| CCc1nc2c(OCCOc3ccccc3)cccn2c1N(C=O)Cc1ccc(OC)cc1 | inconclusive [cytotoxic, full curve, poor fit] | – |
| Cn1c(=O)c(C(=O)NNC(=O)c2ccc(Br)cc2)c(O)c2ccccc21 | active: 20.6 µM | – |
| CCOC(=O)C1=C[C@@H](C(C)(C)C)N(S(=O)(=O)c2ccc(C)cc2)[C@H]1c1cccc(Cl)c1 | inconclusive [cytotoxic, single point] | – |
| COCCNC(=O)CSc1cc(-c2ccccc2)c2ccc(OC)cc2n1 | inconclusive [cytotoxic, partial curve] | – |
| CNc1ccccc1C(=O)OCC(C)=O | inconclusive [rising, single point] | – |
| Cc1oc2cc(O)cc(O)c2c(=O)c1-c1ccc2c(c1)OCCCO2 | inconclusive [cytotoxic, single point] | – |
| Cc1cc(SCC(=O)NN)c2cc(Br)ccc2n1 | inconclusive [cytotoxic, single point] | – |
| C#CCOc1ccc(Br)cc1/C=N/O | inactive | – |
| OC(c1ccc(F)cc1)c1nc(-c2ccc(Cl)cc2)cs1 (centres undefined) | inconclusive [cytotoxic, single point] | – |
| Cc1cc(C)c(C)c(S(=O)(=O)NC(C)C(=O)O)c1C (centres undefined) | inactive | – |
| CCCCNC(=O)CSc1nc2ccc(Nc3nc(N4CCOCC4)nc(N4CCOCC4)n3)cc2s1 | inactive | – |
| O=C(Nc1cccc(C(F)(F)F)c1)Oc1ccc(Cl)c2cccnc12 | active: 16.4 µM | – |
| CC(=O)OCC1OC(OC2C[C@]3(C)C(CC(O)C4C([C@](C)(CCC=C(C)C)OC5OC(CO)C(O)C(O)C5O)CC[C@]43C)[C@@]3(C)CCC(O)C(C)(C)C23)C(O[C@@H]2OC(C)C(O)C(O)C2O)C(O)C1O (some centres undefined) | inactive | – |
